Experimental data reported in US4536398A, “Antiviral agents” (Meiji Seika Kaisha Ltd., priority 1982, dated 1985).

How the values were obtained:
[1] = tested on: influenza virus A0 /PR-8; conditions: oral; for Survival: n=10; for M.S.D. (mean survival days): once a day for five days; for Prolong rate: 1% CMC control = 100
[2] = tested on: influenza virus A0 /PR-8; conditions: intraperitoneal, once a day for five days
[3] = tested on: Influenza virus A0 /PR-8; test: microbe, parasite or virus in culture; assay type: cell-based
[4] = tested on: Influenza virus A0 /PR-8; test: microbe, parasite or virus in culture; assay type: cell-based; remark: listed apart in the source

Row | Compound | Survival ([1]; 250 mg/kg) [%] | M.S.D. (mean survival days) ([1]; 250 mg/kg) [days] | Prolong rate ([1]; 250 mg/kg) | Grade of Lesion % ([2]; 50 mg/kg) [%] | Inhibition percent of consolidation ([2]; 50 mg/kg) [%] | Grade of Lesion % ([2]; 100 mg/kg) [%] | Inhibition percent of consolidation ([2]; 100 mg/kg) [%] | proliferation inhibiting activity (in words) [3] | virus proliferation inhibition index ([3]; A0 /PR-8, 50% toxicity conc. / 50% proliferation inhibiting conc., 2880 min) | IC50 ([3]; unidentified influenza virus, 48 h, read-out: 50% Virus proliferation inhibiting conc.) [µg/mL] | virucidal activity (in words) [4] | IC50 ([4]; unidentified influenza virus, 2 h, read-out: 50% Virucidal conc.) [µg/mL] | Survival ([1]; 62.5 mg/kg) [%] | M.S.D. (mean survival days) ([1]; 62.5 mg/kg) [days] | Prolong rate ([1]; 62.5 mg/kg) | Survival ([1]; 125 mg/kg) [%] | M.S.D. (mean survival days) ([1]; 125 mg/kg) [days] | Prolong rate ([1]; 125 mg/kg) | Grade of Lesion % ([2]; 25 mg/kg) [%] | Inhibition percent of consolidation ([2]; 25 mg/kg) [%]
1 | NC12CC3CC(CC(C3)C1)C2 [Amantadine HCl, reference compound] | 60 | ≥ 13.6 | ≥ 107 | 48.8 | 41.8 | 38.8 | 53.8 | – | – | – | – | – | – | – | – | – | – | – | – | –
2 | COC(=O)C1CC(O)C(O)C(n2cc(CC#N)c3c(OC)cccc32)O1 (stereo not drawn) [SF-2140] | – | – | – | 36.3 | 56.7 | 36.3 | 56.7 | showed a proliferation inhibiting activity | > 158.7 | 6.3 (≈ 17.5 µM) | potent virucidal activity | 3.2 (≈ 8.88 µM) | 70 | ≥ 13.5 | ≥ 106 | 60 | ≥ 13.1 | ≥ 103 | 42.5 | 49.2

≈ marks a conversion by molar mass, not a printed value. Structures can show the parent of a compound that is named as a salt. Where two headings read alike, the source gives them in different places.
